These are yes or no findings as the source states them, for the method shown. For some of these results: Binding seen in cells or lysates may run through a third protein. Some binding calls cover weakened binding; strength is not graded here. Where a sequence is shown, tags or fusion partners need not be part of it.
How the values were obtained:
GST-tagged NOB1 (human) = target: T1, GST-tagged NOB1 (human) (UniProt Q9ULX3); test: pull-down; 50 ng GST-tagged bait with equal amounts of His-tagged or untagged prey; 50 mM Tris-HCl pH 8.0, 10% glycerol, 300 mM NaCl, 5 mM MgCl2, 0.1% Tween20; 1 h at 4°C; glutathione sepharose; western blotting; both purified
T1 sequence: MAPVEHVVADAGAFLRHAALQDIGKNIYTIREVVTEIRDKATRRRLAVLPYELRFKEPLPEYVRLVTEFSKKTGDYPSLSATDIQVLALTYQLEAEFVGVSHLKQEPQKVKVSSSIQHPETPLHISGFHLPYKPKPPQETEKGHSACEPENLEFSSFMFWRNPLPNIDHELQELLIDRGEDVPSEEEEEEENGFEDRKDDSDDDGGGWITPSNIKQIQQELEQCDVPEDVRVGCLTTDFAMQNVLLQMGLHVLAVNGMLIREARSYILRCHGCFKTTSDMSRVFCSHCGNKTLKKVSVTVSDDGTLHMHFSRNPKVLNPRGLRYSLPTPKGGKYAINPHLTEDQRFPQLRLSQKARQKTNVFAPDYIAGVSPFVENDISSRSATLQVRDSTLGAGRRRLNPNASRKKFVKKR

FLAG-tagged NOB1 (human) [1] = target: T2, FLAG-tagged NOB1 (human) (UniProt Q9ULX3); test: condition: only after treatment of the cells with 0.1 μg/μl actinomycin D; co-IP; as the anti-FLAG immunoprecipitation, but cells treated with 0.1 μg/μl actinomycin D (2 h by the legend, 18 h by the methods) before extract preparation; blot with antibody against endogenous NOB1
T2 sequence: T1 sequence

FLAG-tagged NOB1 (human) [2] = target: T2, FLAG-tagged NOB1 (human); test: co-IP; whole cell extracts (sonication) of HEK293 cells expressing the FLAG-tagged bait at endogenous levels; anti-FLAG antibody coupled to protein G sepharose, non-antibody-bound beads as control; eluates western blotted for endogenous proteins
[3] = target: T3, GST-tagged ENP1 (human), Q13895; test: pull-down; 50 ng GST-tagged bait with equal amounts of His-tagged or untagged prey; 50 mM Tris-HCl pH 8.0, 10% glycerol, 300 mM NaCl, 5 mM MgCl2, 0.1% Tween20; 1 h at 4°C; glutathione sepharose; western blotting; both purified; conditions: remark: other sources report otherwise
T3 chain: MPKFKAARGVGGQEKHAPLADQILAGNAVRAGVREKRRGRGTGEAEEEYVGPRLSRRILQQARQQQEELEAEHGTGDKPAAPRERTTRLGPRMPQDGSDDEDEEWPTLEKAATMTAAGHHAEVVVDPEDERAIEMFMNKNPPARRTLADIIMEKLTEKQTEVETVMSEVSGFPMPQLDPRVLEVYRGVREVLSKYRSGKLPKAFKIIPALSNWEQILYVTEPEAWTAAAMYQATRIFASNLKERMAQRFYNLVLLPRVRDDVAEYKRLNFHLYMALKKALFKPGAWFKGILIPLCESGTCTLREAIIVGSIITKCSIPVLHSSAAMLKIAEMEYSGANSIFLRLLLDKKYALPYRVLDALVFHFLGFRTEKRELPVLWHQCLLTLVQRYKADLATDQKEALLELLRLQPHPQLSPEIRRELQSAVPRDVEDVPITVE

B1: His-tagged NOB1 (protein, UniProt Q9ULX3 1-412)
chain: T1 sequence
- binding (GST-tagged NOB1 (human)): binds weakly

B2: endogenous NOB1 (protein, UniProt Q9ULX3 1-412)
chain: T1 sequence
- binding (FLAG-tagged NOB1 (human) [1]): no binding
- binding (FLAG-tagged NOB1 (human) [2]): binds

B3: His-tagged NOB1, Q9ULX3 1-412 (protein)
chain: T1 sequence
- binding [3]: no binding

Source: article PMC6380343
